Measurements from PubChem BioAssay AID1345083 (National Center for Advancing Translational Sciences (NCATS), 2018).
Out of some 94,000 compounds screened, about 6,200 (6.6%) were called active. Inconclusive means that the source gave no clear call. Such entries were picked first, then a sample of the others. Calls follow the shape of the dose curve; as a rule, active = well fitted inhibition curve with a large enough effect; inconclusive = small, poorly fitted or top-dose-only effect; inactive = flat fitted curve, though single readings scatter. A potency beside an inconclusive call is a rough fit, not a confirmed value.

Assay: Cytotoxic Profiling in HEK 293 Cell Line of Diverse Libraries Using Quantitative High-Throughput Screening; also: nearly all actives have a fitted effect of over 60% in size
Conditions: HEK 293 viability, ATP luminescence (CellTiter-Glo), 48-72 h; activity change, negative = cytotoxicity: at 115 µM (top of the series) unless noted; series mostly up to 115 µM
How it was run: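 Viability of HEK 293 cells, plated at 250 cells/well, was judged by cellular ATP after compound treatment for 48 or 72 hr. Luminescence was imaged 10 min after CellTiter-Glo addition at room temperature.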
% is scaled to controls: 0 for no effect and ±100 for the full control effect; potency is read from the fitted curve at half-maximal effect; tags tell the direction and shape of the fitted curve.

| SMILES | activity change, negative = cytotoxicity | Potency | outcome |
| --- | --- | --- | --- |
| O=C(O)c1cccc2c1CCN2C(=O)c1ccccc1 | inactive: -25.8% |  |  |
| O=C(NC1CCCN(c2ccc3nnc(-c4ccccc4)n3n2)C1)C1CCCC1 (centres undefined) |  | inconclusive: 56.2 µM [inhibitor, partial curve, poor fit] |  |
| Cc1cc(C(=O)N2CCC(Cc3ccc(COCc4ccncc4)cc3)CC2)n(C)n1 |  | inconclusive: 56.2 µM [inhibitor, partial curve, poor fit] |  |
| Cc1cnc(C2CC2)n1C1CCN(S(=O)(=O)c2ccc(C#N)cc2)CC1 |  | inconclusive: 3.55 µM [inhibitor, full curve] |  |
| O=C(NCc1nnc2cc(-c3nc(C4CC4)no3)ccn12)c1cccnc1 |  | inconclusive: 89.1 µM [inhibitor, single point] |  |
| COCC1CCN(c2ccc(-c3nc(CCCc4ccccc4)no3)cn2)C1 (centres undefined) |  | inconclusive: 44.7 µM [inhibitor, partial curve, poor fit] |  |
| O=C(COc1ccc(F)cc1)N1CCC2(CC1)NC(=O)N(c1ccccc1Cl)N2 |  | inconclusive: 44.7 µM [inhibitor, partial curve, poor fit] |  |
| O=S(=O)(Cc1ccccc1)N1CCC2(CCCCO2)CC1 |  | inconclusive: 89.1 µM [inhibitor, partial curve, poor fit] |  |
| Cc1ccccc1CN1CCC2(CC1)OCCN(CCc1ccccc1)C2=O |  | inconclusive: 89.1 µM [inhibitor, partial curve, poor fit] |  |
| CCOCC1(C)COc2ccc(C(=O)Nc3ccc(Cl)cc3)cc2N1 (centres undefined) |  | active: 39.8 µM |  |
| Cc1noc2c(N(C)C)cc(-c3ccccc3)nc12 |  | inconclusive: 112 µM [inhibitor, partial curve] |  |
| COc1cccc(CNC(=O)C2CCN(C(=O)c3cc4c(=O)[nH]c(C)cn4n3)CC2)c1 | inactive: 27.9% |  |  |
| O=C(c1ccco1)N1CCCn2cc(-c3ccccc3F)nc21 | inactive: -15.9% |  |  |
| N#Cc1cccc(C(=O)N2CCCCCCNC(=O)CC2)c1 | inactive: -24.6% |  |  |
| COC[C@@H]1CN(C(=O)c2cc3ccccc3[nH]2)C[C@H]1c1nc(C)no1 |  |  | inactive |
| CCCCCNC(=O)C1CCCN1c1nccc(Nc2ccc(C)cc2)n1 (centres undefined) |  | inconclusive: 7.94 µM [inhibitor, full curve, poor fit] |  |
| Cc1noc(C)c1[S+](=O)([O-])NC1CCN(Cc2cccc(-c3ccc(F)c(F)c3)c2)CC1 |  | active: 25.1 µM |  |
| COCCN1C(=O)Cc2ccccc2C1C(=O)NCc1ccc(N2CCCCC2)cc1 (centres undefined) | inactive: -0.461% |  |  |
| Cc1nccn1CC(=O)N1CCCn2cc(-c3cccc(C#N)c3)nc21 |  | inconclusive: 89.1 µM [inhibitor, single point] |  |
